Read counts are not given, so values of variants with three or more changes are uncertain.

B1: OR4K15 (parent)
chain: GUUAACGGUCAUAGGCCAUGGAAACUAGGAGCACCAUUUCGCUGCCAGUGAAGAAAUGAACAAAGAAAAUCUGGGCCAGGCAGGCAUCAAAAGAAAUAGUCUUGCGCUCAACCAGAAAGUCUGUAAUCAUUUUAAGGGUA

In this series the parent is B1. The series is described as follows: self-cleavage, relative activity (ratio to wild type); higher = more cleavage; in vitro, sequencing; the parent is a self-cleaving ribozyme.
Take A11G A59U U70A C85U: the self-cleavage stood at 0.52.
To A11G A22G U37C U124A belongs 0.4; to U12C A22U A23G C85U, 0.47; to A11C U12A G84A U127C G138U, 1.12.
As for U12C A33C A56G, the self-cleavage was 1.06.
Then A11G A68G A96G A118G U132C A135G, with 0.76; and U12A G44A U102C, with 1.15; and A11G A91G U100C, with 0.9.
Then A11G U70C A98G, with 0.36.
Then A11G A27G U108C, with 0.04; and A11C U19C A95G, with 1.67; and A11U A51G A111C, with 0.04.
As to A11G A59G A63G A90G, the self-cleavage was determined as 1.37.
On to A11G A64U A117G A125U, for which the self-cleavage amounted to 1.22.
To A11G A52G G74U A86U A118G belongs 0.09; to A11G A60G A94G, 0.94.
Then A11G U38C A96G, with 1.68.
On to A11G A13G U43G A47G U72A, for which the self-cleavage worked out at 0.51.
To A11G A96U U108C A116G belongs 0.01; to A11G U70C U87A U133C, 0.96.
Then A11G U38G A95G U122C, with 0.72; and A11G A67G U102A, with 0.91; and U12C A86G G106A, with 0.05.
To U12A U43C C107U U124A belongs 0.06; to A11G A27U U100C, 1.95.
On to U12C A18G U49G, for which the self-cleavage worked out at 1.9.
Then A11G A27G U57A A89G U100C, with 1.33; and A11G U37C A92U, with 0.73.
Then A11G A96U U120C, with 0.97; and A11G A47G A54U A64U G106A, with 0; and A11G U70C A90U, with 1.1.
Then A11G A13G A114G A118G A126G, with 0.1; and A11G C35U C46U A78G, with 0.24.
For the variant U12A A62G U97C, the self-cleavage amounted to 1.47.
Turning to A11G A13U A24C A55G A56U A89U A126G, the self-cleavage worked out at 0.47.
Then A11G U26A A56G A92U, with 1.01.
To A11G A52G A64G U100C belongs 0.75; to A11U A94G A96G U124C, 0.61.
Then U12C A52G A67G A78G, with 0.16; and U12C A33G U38C, with 0.91.
With A11G A60U A66G A78G U100C, the self-cleavage turned out to be 0.22.
To A11G A96U A117G belongs 2.49; to A11U A23G C34U A56U A59G A90G U103A U120C, 0.06.
To A11U U12A A68U U100C U139C belongs 1.79; to U12C A60G A92G A110G U120C U127C, 0.
To A11G U97C A110G U131C belongs 0.03; to U12C A52C A64U, 0.77; to A11G A27U A30G A47G A54U U122C, 0.82.
Consider A11G A59U A125G, for which the self-cleavage came to 0.58.
To A11G A23G U122C A134G belongs 0.96; to A11G A55G A95U U130C, 0.71.
As to A11C A69G A91G A111G, the self-cleavage came to 0.02.
To A11G U38C A52G U57C A68G U131A belongs 0.98; to A11G A47G A59G A78G U87A C109A, 0.07; to U12C A56G A68G, 0.34.
To A11G U19C U108C belongs 0; to A11G A47U C101A, 0.05; to U12C A64C U72A A117G U131C, 0.13.
For U12C A86U A89U, the self-cleavage came to 1.55.
To A11G A90G A92U U130C belongs 0.46.
Then A11U U72C A96G, with 0.11; and A11G U39C A59G A91G, with 0.62; and A11G U72A A114G A125G, with 0.05.
As to U12C A82G A92G, the self-cleavage was 0.36.
To A11G A23G U26C A47G A67G U87C belongs 0.2; to A11U A22U A33U A52G U70C G106U, 0.05.
In the case of A11C A78U U103C U131C, the self-cleavage was determined as 0.06.
Then A11U G53U U87C, with 0.27; and A11U A33G A51G U70A, with 0.18; and A11U A64G U100C, with 1.6.
Then A11G A47G A56G, with 0.79; and U12A A94U A116G A134G, with 0.42.
With A11G U43C U103C A117G U130C, the self-cleavage was found to be 0.64.
Then U12A U37A A116C A118G, with 0.44.
To A11G A82G A129U belongs 0.59; to A11G A33U A116G U122A U130A, 0.02.
To A11U A56G A91U belongs 0.89.
Turning to U12A A90G A95G A110G A118U, the self-cleavage turned out to be 0.1.
Then A11U G28A A51G A94G A118G, with 0.84; and U12A A67G U70C G74U, with 0.3; and A11U A92U A116U, with 0.
Then A11G U12A U39C, with 1.
On to U12C A78U A86U, for which the self-cleavage came to 0.75.
As for A11G U19G G31A U130C, the self-cleavage came out at 1.02.
Then A11G U43A A110G, with 0.05; and A11G A47G U70C G73U, with 0.26.
Then A11G U37C U43A U49G U70C A96G U108A A135G, with 0.01; and A11G A55G A78G, with 0.23.
To A11G A23G A96G belongs 0.44; to U12C A69G A98G U131C, 0.54; to A11G A66U U87C U132A, 0.34.
In the case of A11U A23G A66G U72C U102C, the self-cleavage stood at 0.25.
To A11U A95G U131C belongs 1.67; to U12C A30G A78C U108C U124C, 0.01; to A11G A64G A66G G84A U120G, 1.79.
Then A11G A24G U130C, with 0.29.
To A11G A18U A33G G53U G136A belongs 0.42.
Regarding A11U A62G A63U, the self-cleavage is 1.36.
Then A11G A56G A63G, with 0.48; and A11G A51G U120C, with 0.65.
Then A11G A54G A134G, with 0.57; and A11G U12A U26A A59G A92U, with 1.11.
Then A11G U19G C42U U127C, with 0.38.
On to A11U A66G A68U U120C U122C, for which the self-cleavage stood at 1.78.
To U12C A55G A95G U122G belongs 2.68; to A11G C17U A134G, 1.32; to A11U A18U A30G A51G A78U, 0.67.
Then U12C A36U A67G U108C, with 0.09; and A11G A33G G58U A90U U132G, with 0.
To A11G A23G A86C A96G A110G belongs 0.07; to A11G G79A A89U U108C, 0.04.
Take A11G C35U G79U A117G: the self-cleavage was determined as 0.09.
Then U12A A23G A52G U103A, with 0.44.
Turning to A11G U19C U26C A55G U103C A116U, the self-cleavage worked out at 0.2.
Consider U12C A33U G41A A69G C85U, for which the self-cleavage amounted to 1.49.
To U12C A47G A55G belongs 1.08.
Then U12C A18G A56G A98G, with 0.73; and U12A A23G U49C, with 1.1.
To A11G A54G A56G A86U A140U belongs 0.98; to A11G A67G A86U, 0.82.
As to A11U U100C U130C, the self-cleavage came out at 0.98.
To A11G A66G A117U belongs 1.33.
Then U12C A56G G99A, with 0.5; and A11G A55G U130C, with 0.33.
Then U12A A27C A56G A86G U120C, with 0.65.
As for U12C A52G A56C, the self-cleavage is 1.7.
To U12A C17A A69G U97A belongs 2.35.
To A11U C61U U103C belongs 1.34; to A11G C40G A95G C109U, 0.51.
As to A11G A27U A54G A56U, the self-cleavage is 0.13.
Then A11G A55G U57A A69G U102G C105U, with 0.12; and A11G A116G U120C, with 0.1.
As for A11G A30G U43C, the self-cleavage came out at 0.69.
To A11G U19C U43C A78G A135U belongs 0.22; to A11U A51G A64U, 1.49.
Then A11G U19C G84A, with 1.13; and A11U A54U A129G, with 0.67.
As to A11G A67G A111G, the self-cleavage worked out at 0.03.
A11U A22C A27G A94G A118G: the self-cleavage was determined as 1.34.
To A11G A27U U102C belongs 1.13; to A11U U38C A59U A129G, 0.85; to A11G A27C A36G A59G, 0.94.
On to A11G A92G U130C, for which the self-cleavage came to 0.53.
Then A11G A24G A27G U39A A134G, with 0.94; and A11U U19A C42A A54G A111G, with 0.03; and A11G A18C A66U, with 0.84.
Then U12A A94G A110G A140G, with 0.1; and U12A A69G A89G C105U A134G, with 0.07; and A11G C40U A47G U127C U132C, with 0.33.
To A11G U97C A111G U131C belongs 0.03; to A11G G15A A36U A59G, 0.71.
Take A11G U108C A111U A126G U133C: the self-cleavage came to 0.
To A11C U43C A47G U57C belongs 0.71; to U12A A60G U97A U122C A135G, 0.45.
As for A11G U127C A129U, the self-cleavage came out at 0.9.
Then A11G A59G A129C A135U, with 0.1; and A11U U19C A63G A89G, with 1.8.
On to A11U U19A A51U U87C, for which the self-cleavage was found to be 1.36.
To A11U A18G A24G A64G U100C belongs 1.5.
As for A11G U19C A66U A92G A134G, the self-cleavage worked out at 0.46.
Then A11U A52G A82G, with 0.38; and A11G A59G A86G, with 0.59.
Then U12C A36G C77A A110G, with 0.12.
To A11G A18G A22C A23U A90G U102C belongs 1.18; to A11U A22G A82U U87A U130C, 0.06.
With U12C A24G A66G A67C, the self-cleavage stood at 1.32.
Then A11G U122C A129G, with 0.4.

The values above are taken from the RNAGym collection of RNA variant scans (doi:10.7554/elife.90254).
